From PubChem BioAssay AID1508624 (National Center for Advancing Translational Sciences (NCATS), 2021)
About 120 (0.25%) of roughly 48,000 compounds were called active. Another 4% or so got no clear call; they are omitted. The call rests on the fitted dose curve; in most records, active means well fitted activation curve with a large enough effect; inconclusive means small, poorly fitted or top-dose-only effect, or another doubt; inactive means no such curve, though single readings can be large or run the other way. The list shows a part of the results.

Assay: Primary qHTS for Identification of Small Molecule Activators of Huntingtin-Antisense Promoter Activity; further: nearly all actives have a fitted effect of over 55% in size
Conditions: HEK293 HTT-AS promoter firefly luciferase reporter (activity 0% = vehicle and -100% = no light), 24 h; series mostly up to 57.5 µM; activity change, positive = activation: at the top concentration
Outline: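 HEK293 luciferase promoter-reporter cells (2,500/well) plated 24 h, then compounds added at up to 57.5 uM final for 24 h at 37 °C. Firefly luminescence by Dual-Glo, normalized to vehicle (0%) and zero RLU (-100%).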

Activity change, positive = activation, inactive:
Cc1ccc(NC(=O)COc2ccc3oc4c(c3c2)CCCC4)cc1C -5.73%, CNC(=O)c1ccc2c(C(=Nc3cccc(CN(C)C)c3)c3ccccc3)c(O)[nH]c2c1 -66%, Cc1ccc(CN2COc3c(Cl)cc4c(-c5ccccc5)cc(=O)oc4c3C2)cc1 -10.8%, CCOc1ccccc1NC(=O)Cn1c(=O)n(C(C)C)c(=O)c2oc3ccccc3c21 -10.6%, COc1ccc(-n2c(=O)c3ccc(C(=O)NCc4ccc(C)cc4)cc3n(Cc3ccc(Cl)cc3)c2=O)cc1 -12.6%, COc1ccc(-n2nc3c(N4CCCC(C(=O)NCCc5ccccc5C)C4)nnc(C)c3c2C)cc1 (stereo not given) -22.3%, COCCn1c(C)cc(O)c(C(c2ccc(F)cc2)N2CCC(C)CC2)c1=O (stereo not given) 5.94%, Cc1ccc(N(CC(=O)Nc2ccc(C)c(Cl)c2)S(=O)(=O)c2cccs2)cc1 -9.95%, COc1cccc(NC(=O)Cn2c(=O)n(-c3ccccc3)c(=O)c3c2c2cc(OC)ccc2n3C)c1 -25.1%, O=S(=O)(c1ccc(-c2cnc(C3CC3)o2)cc1)N1CCN(c2ccccc2)CC1 18.2%, Cn1cc(S(=O)(=O)N2CCOCC2)cc1C(=O)Nc1cccc(C#N)c1 -10.2%, COc1ccc(C2c3c(n(C)c4ccccc34)C(=O)N2CC(=O)Nc2ccc(F)cc2)cc1 (stereo not given) -19.1%, CCC(=O)N1CCc2cc(OC)c(OC)cc2C1COc1ccc2c(C)cc(=O)oc2c1 (stereo not given) 8.31%, CCCCn1c(=N)n(CCOc2ccccc2OC)c2ccccc21 -34.6%, Cc1ccc(C(=O)c2oc3ccccc3c2NC(=O)Cc2ccccc2)cc1 -10%, Cc1ccc(CSc2nc(-c3ccccc3C)nc3c2Cc2c(CO)cnc(C)c2O3)cc1 -5.44%, COc1ccc(-c2ccc(=O)n(CC(=O)Nc3ccc(OC)c(OC)c3)n2)cc1 -14.9%, CCOc1ccc(-c2nc(SCC(=O)Nc3cc(F)ccc3F)n3[nH]c(=O)cc3n2)cc1 -3.46%, CCn1nnc2cc(C(=O)Nc3ccc(Br)cc3F)ccc21 36.4%, Cn1ncc2c(NCc3ccc(F)cc3)ncnc21 -1.04%, CCOC(=O)c1c(S(=O)(=O)N2CCC(C(=O)N3CCN(c4ccc(F)cc4)CC3)CC2)c(C)n(C)c1C -10.6%, O=c1[nH]c2ccccc2n1CCCN1CCN(C(c2ccccc2)c2ccccc2)CC1 -30.9%, Cc1ccc(NC(=O)C2CCCN2S(=O)(=O)c2ccc3c(c2)n(C)c(=O)c(=O)n3C)cc1C (stereo not given) -5.62%, O=C1N(Cc2ccccc2)c2ccccc2C1(O)c1c[nH]c2ccccc12 (stereo not given) -16%, Cn1c(=O)c2c(SCC(=O)N3CCc4ccccc43)nc(-c3ccc(Cl)cc3)nc2n(C)c1=O -3.96%, O=C(CN1C(=O)COc2ccc(S(=O)(=O)N3CCOCC3)cc21)N1CCN(c2ccccc2F)CC1 -20.4%, CCc1cccc(NC(=O)c2c(C)oc3nc(C)nc(N4CCCC4)c23)c1 -14.1%, Cc1ccc(NC(=O)C(=O)NCC2(c3ccccc3)CCCC2)cc1C 29.2%, Nc1nc2ncc(CNc3ccc(C(=O)N[C@@H](CCC(=O)O)C(=O)O)cc3)nc2c(=O)[nH]1 -2.96%, CCCOc1ccc(CNC(=O)CN2C(=O)c3cccnc3Oc3ccc(C)cc32)cc1 -12.7%, COC(=O)C1CCN(c2csc3ccc(Cl)cc3c2=O)CC1 16.7%, CCC[C@H](N[C@@H](C)C(=O)N1[C@@H]2CCCC[C@H]2C[C@H]1C(=O)O)C(=O)OCC -2.02%, O=C(NCCCO)c1nn(-c2ccc(Cl)cc2)nc1CO 0.786%, CCc1ccc(OCc2cc(=O)n3cc(C)sc3n2)cc1 -0.0969%, CCOc1ccc2oc(=O)cc(CN3CCN(c4ccccc4OC)CC3)c2c1 -20.3%, COc1cc(OC)c(OC)cc1CNCCCSc1nnnn1C 0.362%, COc1cccc(NC(=O)Cn2c(=O)n(CCc3ccc(OC)c(OC)c3)c(=O)c3ccccc32)c1 -12.2%, CCc1ccc(NCc2cc3ccc(OC)cc3n(CC(=O)Nc3ccc(C)c(Cl)c3)c2=O)cc1 -0.078%, COc1ccc(C(=O)N(Cc2cc(OC)c(OC)c(OC)c2)C2CCS(=O)(=O)C2)cc1Cl (stereo not given) 8.03%, COc1cc(OC)c(N(C)C(=O)c2sc3nc4n(c(=O)c3c2C)CCCCC4)cc1Cl 5.94%, Cc1cc(Nc2cc(F)ccc2C)nc(-n2nc(C)cc2C)n1 -33.3%, COc1cc(NC(=O)Cn2nc3c(cc2=O)CC(C)CC3)cc(OC)c1OC (stereo not given) -16.4%, CN(C)S(=O)(=O)N(CC(=O)NCCSc1ccccc1)c1ccccc1 -16.9%, CC(C)N(Cc1ccccc1)C(=O)CN1C(=O)CSc2ccc(S(=O)(=O)N3CCCC3)cc21 -37.6%, Cc1c(C(=O)N2CCC(C)CC2)c(S(=O)(=O)Nc2ccc(OC(F)(F)F)cc2)c(C)n1C -23.3%, CCn1cc(C(=O)N2CCN(c3ccc(OC)cc3)CC2)c(=O)c2cc(S(=O)(=O)N3CCOCC3)ccc21 -3%, COc1ccc2[nH]cc(CCN=C(NC(=O)c3ccccc3C)Nc3nc(C)cc(C)n3)c2c1 8.76%, O=C(Nc1ccc(C(F)(F)F)cc1)C(Cc1ccccc1)n1cccc1 (stereo not given) -31.7%, O=C(NCCCN1CCN(c2ccccc2F)CC1)c1ccc2nc(N3CCCCC3)sc2c1 -55.5%, CC(=O)Nc1cccc(C(=O)NCc2ccc3c(c2)CCN3C(=O)c2ccc(F)cc2)c1 4.75%, CCN(C(=O)C1CCCN(c2ncnc3c2nc2n3CCCCC2)C1)c1cccc(Cl)c1 (stereo not given) -37%, Cc1cc(NC(=O)c2ccc(NC(=O)CCS(=O)(=O)c3cccs3)cc2)ccc1Br 12.4%, Cc1c(CCNC(=O)C(C)(C)C)sc2nc(-c3ccc(F)cc3)nn12 -30.2%, COc1cccc(NS(=O)(=O)c2ccc3[nH]cc(C(=O)N4CCCC4)c(=O)c3c2)c1 -5.13%, CC(=O)c1ccc(NC(=O)COCc2cc(-c3ccc(F)cc3)on2)cc1 -10.6%, COc1ccccc1NC(=O)C1=C(C)Nc2nc(SCc3ccccc3)nn2C1c1ccncc1 (stereo not given) -8.03%, COc1ccc(Cl)cc1NC(=O)CCn1c(=O)oc2ccccc21 -13%, Cc1ccccc1NC(=O)CSc1ccc(-c2cccs2)nn1 -14.2%, O=c1[nH]c(SCc2ccc([N+](=O)[O-])cc2)nc2c1CCCC2 -5.17%, COc1ccc(NC(=O)Nc2nnc(N(CC(C)C)CC(C)C)s2)c(OC)c1 -20.3%
